These results are taken from PubChem BioAssay AID1508642 (National Center for Advancing Translational Sciences (NCATS), 2021).

Structures are written as SMILES. Among all 43,000 compounds or so, about 200 (0.47%) were called active. Not shown: some 12% with an inconclusive outcome. The call rests on the fitted dose curve; in most records, active means well fitted cell-killing curve with a large enough effect; inconclusive means small, poorly fitted or top-dose-only effect, or effect the other way; inactive means flat fitted curve, though single readings scatter. The list shows a part of the results.
On the % scale 0 is the no-effect control and ±100 the full control effect.

The nature of the assay: Cell viability qHTS assay in S16 Pmp22-F2sN cells. Further: nearly all actives have a fitted effect of over 65% in size. The conditions noted are these: S16 Pmp22-F2sN Schwann cells viability, CellTiter-Glo, 24 h; series mostly up to 57.5 µM; activity change, negative = cytotoxicity: at the top concentration. Summed up: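 Used to flag compounds lowering reporter output through toxicity, this quantitative HTS measures ATP-based CellTiter-Glo luminescence in S16 Pmp22-F2sN Schwann cells after 24 h compound exposure at 37C.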
Background: In qHTS, concentration-response curves come from the screen itself.
Turning to `Cc1ccc(N2CCN(C(=O)NCc3noc4ccc(C)cc34)CC2)c(C)c1`, the “activity change, negative = cytotoxicity” value is inactive: 5.27%.
The figure for `COC(=O)c1ccccc1NC(=O)C1CCCN(c2ncnc3onc(C)c23)C1` (stereo not drawn) is inactive: -0.155%.
As for `Cc1ccc(CNC(=O)c2sc3nc4n(c(=O)c3c2C)CCCCC4)cc1`, the figure is inactive: -1.56%; as for `COc1ccccc1NC(=O)CSC1=Nc2ccccc2C2=NC(CC(=O)NCc3ccc4c(c3)OCO4)C(=O)N12` (stereo not drawn), inactive: 5.75%; as for `COc1ccccc1N=C1SC(C(=O)Nc2ccccc2OC)CC(=O)N1C` (stereo not drawn), inactive: 1.87%.
The figure for `CCOC(=O)c1noc2ncnc(NCc3ccccc3OC)c12` is inactive: 6.96%.
As for `O=C(NCCOCCn1c(=O)oc2ccccc21)Nc1cccc(Cl)c1`, the “activity change, negative = cytotoxicity” value is inactive: -16.2%.
The figure for `O=S(=O)(c1ccc(-n2cnnn2)cc1)N1CCN(c2cccc(C(F)(F)F)c2)CC1` is inactive: 1.53%; for `Cc1oc(C)c2c(=O)cc(-c3ccc4c(c3)OCO4)cc(OC(=O)c3cccc(Cl)c3)c12` it is inactive: -10.9%.
On to `Cc1ccc(S(=O)(=O)NCc2ccc(C(=O)NCCc3cccc(C)c3)cc2)cc1`, for which the “activity change, negative = cytotoxicity” value is inactive: -20.1%.
As for `COc1ccc(S(=O)(=O)N(Cc2nc(-c3ccc(Cl)cc3)no2)C2CCCCC2)cc1`, the figure is inactive: -26.1%; as for `N#Cc1c(C(F)(F)F)cc(-c2cccs2)nc1SCC(=O)Nc1cccc(C(F)(F)F)c1`, inactive: 0.998%; as for `O=C(c1ccccc1Br)N1CCC(c2nc3ccccc3o2)CC1`, inactive: -19.8%.
The figure for `Cc1ccc(Cn2c(=O)n(-c3cc(C)cc(C)c3)c(=O)c3oc4ccccc4c32)cc1` is inactive: 18%; for `CCCCOC(=O)c1cccc(NC(=O)/C=C/c2ccccc2Cl)c1` it is inactive: -15.2%; for `COC(=O)c1ccc(Cl)cc1NC(=O)N(Cc1ccc(OC)cc1)C1CCN(C(C)=O)CC1` it is inactive: -3.86%.
As for `COc1ccc(OC)c(NC(=O)CSc2nc3ccccc3c(=O)n2CCC(=O)NC2CCCCC2)c1`, the figure is inactive: -16.6%; as for `COc1cc(Cl)c(C)cc1NC(=O)c1sc2nc(C)cc(C)c2c1N`, inactive: 4.41%.
As to `Cc1ccsc1CN(C(=O)COc1cccc(C)c1C)C1CCS(=O)(=O)C1` (stereo not drawn), the “activity change, negative = cytotoxicity” value was inactive: 1.2%.
Consider `CN1C(=O)C(C)(C)c2cc(S(=O)(=O)N3CCCC3C(=O)Nc3ccc(F)cc3)ccc21` (stereo not drawn), for which the “activity change, negative = cytotoxicity” value was inactive: 4.02%.
Take `COc1ccccc1NC(=O)C(Cc1ccccc1)NS(=O)(=O)c1cccc2nsnc12` (stereo not drawn): the “activity change, negative = cytotoxicity” value was inactive: -18.8%.
For `COc1ccc(-n2cc(C(=O)OCc3ccc(Cl)cc3)c3ccccc3c2=O)cc1`, the “activity change, negative = cytotoxicity” value was inactive: 0.202%.
For `CN(C)c1ccc(C(CNS(=O)(=O)c2ccc(F)cc2)N2CCOCC2)cc1` (stereo not drawn), the “activity change, negative = cytotoxicity” value is inactive: 9.88%.
The figure for `Cn1c(=O)c(=O)n(C)c2cc(S(=O)(=O)N3CCCC3C(=O)Nc3ccc(F)cc3)ccc21` (stereo not drawn) is inactive: -17%; for `CCOc1ccc(CNC(=O)Cn2ccc3cc(S(=O)(=O)N4CCCCC4)ccc32)cc1` it is inactive: -20.8%; for `Cc1ccc(NC(=O)CSc2ccc(-c3ccccn3)nn2)cc1F` it is inactive: -22.1%.
For `COc1ccc(S(=O)(=O)N(CC(=O)NCCSCc2ccccc2)c2ccc(C)cc2)cc1`, the “activity change, negative = cytotoxicity” value was inactive: 23.5%.
The figure for `CCC(C(=O)Nc1ccc(C(=O)OC)cc1)n1nc(-c2ccc(C)c(C)c2)ccc1=O` (stereo not drawn) is inactive: -10%; for `Cc1c(C(=O)OC2CCCCCC2)[nH]c2c1C(=O)CC(c1ccc(N(C)C)cc1)C2` (stereo not drawn) it is inactive: 17.4%; for `COc1ccc(NC(=O)C2CCN(S(=O)(=O)c3ccc4c(c3)CCCC(=O)N4)CC2)c(OC)c1` it is inactive: 7.08%.
The figure for `CCOc1ccc(Nc2sc(C(=O)c3cccc(OC)c3)c(N)c2S(=O)(=O)c2ccccc2)cc1` is inactive: -3.66%; for `COc1ccc(C)cc1NC(=O)Nc1ccccc1OCc1cc(=O)n2ccccc2n1` it is inactive: 20.8%; for `CCCCNC(=O)c1cnc2sc(N3CCCCCC3)nn2c1=O` it is inactive: -3.58%.
As for `Cc1cc(C)c(NC(=O)C(=O)NCC(c2cccnc2)N2CCN(Cc3ccccc3)CC2)c(C)c1` (stereo not drawn), the “activity change, negative = cytotoxicity” value was inactive: -0.719%.
On to `Cc1ccccc1-c1noc(-c2ccc(N3CCN(C)CC3)c([N+](=O)[O-])c2)n1`, for which the “activity change, negative = cytotoxicity” value was inactive: 18%.
The figure for `COc1cccc(NC(=O)CSC2=Nc3ccccc3C3=NC(CC(=O)NCc4ccc5c(c4)OCO5)C(=O)N23)c1` (stereo not drawn) is inactive: -21.7%.
Regarding `COc1ccc(CC(=O)N(Cc2nc(-c3ccc(C)cc3)no2)C(C)C)cc1`, the “activity change, negative = cytotoxicity” value was inactive: 8.03%.
`COc1ccc2c(c1)c1c(c(=O)n(-c3ccccc3)c(=O)n1CC(=O)NCc1ccc(C)cc1)n2C`: the “activity change, negative = cytotoxicity” value is inactive: -0.973%.
The figure for `CSc1nn(Cc2cccc(Cl)c2)c(N(C(C)=O)C(C)=O)c1S(=O)(=O)c1ccccc1` is inactive: 18.3%; for `CCOc1ccc(CCNC(=O)CSc2nnnn2-c2ccc(C)cc2C)cc1OCC` it is inactive: 3.2%.
The figure for `CCOC(=O)C1=C(CN(C)Cc2ccccc2)NC(=O)NC1c1ccc(OC)cc1` (stereo not drawn) is inactive: 11.5%; for `O=C(NCC(c1cccnc1)N1CCc2ccccc21)c1ccc(F)cc1` (stereo not drawn) it is inactive: -10.9%.
The figure for `CCOc1ccc(NC(=O)N(C)CCc2c(C)nn(C)c2C)cc1` is inactive: 1.46%.
As to `CCCCOc1ccccc1C(=O)N(Cc1cccc(F)c1)C1CCS(=O)(=O)C1` (stereo not drawn), the “activity change, negative = cytotoxicity” value was inactive: 5.98%.
As for `CC(=O)c1cccc(NC(=O)Cc2noc3ccccc23)c1`, the figure is inactive: -19.2%; as for `CC(C)CCNC(=O)CN1C(=O)c2cccnc2Sc2ccccc21`, inactive: 2.93%.
Regarding `CCS(=O)(=O)c1ccccc1C(=O)Nc1ccc(-c2nc3ccccc3s2)cc1`, the “activity change, negative = cytotoxicity” value was inactive: 13.5%.
As for `COc1ccc(CC(=O)Nc2cc(-c3cn4cccnc4n3)ccc2OC)cc1`, the figure is inactive: 1.58%.
